# The full ranking holds about 16,000 sequences; the median of “Z-score” is about -0.37, and the highest 2% start at about 3.2. The list shows a part of the results.
# Tested on: RBM10 RRM1-ZnF (GST-tagged construct)
# Test: RNAcompete 7-mer binding Z-score; higher = stronger binding preference
# In short: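 GST-tagged RBM10 constructs (20 pmol) were mixed with a designed pool of 241 399 RNAs up to 41 nt (1.5 nmol), transcribed from microarray-derived DNA templates. Mixing was in 1 ml Hepes pH 7.8 buffer with KCl, NaCl, glycerol, DTT, BSA and glutathione Sepharose beads. Binding ran 30 min at 4°C, followed by four 2-min washes at 4°C, and bound RNA was identified by microarray hybridisation. Each heptamer motif received a one-sided Z-score for enrichment across probes containing it.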
row,Sequence,RNAcompete 7-mer binding Z-score
1,UCUAAGA,-0.62
2,UGCGAGC,0.316
3,UAUCAAG,-0.363
4,AAUCUAC,-0.594
5,CCGGCCC,-0.535
6,UACCAGG,0.0235
7,AAGACAU,-0.106
8,CAUUUGA,-0.776
9,AGUAUGG,2.48
10,GUCACGC,-0.227
11,GUGGCAU,0.813
12,GACGGUA,1.19
13,AAUAAGG,1.2
14,GCUCGUU,-0.526
15,GACAGGA,2.07
16,GAUCAAA,-0.451
17,CUUCAUG,-0.753
18,CGCUAGA,-0.451
19,AGUCCAA,-0.526
20,AUUCUGC,-0.86
21,GAUAUUU,-0.327
22,ACCGUGC,-0.561
23,GUCCAGC,-0.457

row,Sequence,RNAcompete 7-mer binding Z-score
1,UCUAUUA,-0.685
2,GCGUAGA,0.335
3,GUUCAUA,-0.506
4,ACUCAAU,-0.763
5,UAGUGAG,0.917
6,CGUGAUA,-0.00571
7,UUGCCCC,-0.457
8,UACAAUC,-0.659
9,ACGUACA,-0.272
10,GCACCCG,-0.379
11,UUCAAUG,-0.321
12,CGAAUUG,0.0235
13,AUGUUGC,-0.256
14,ACGAAGU,-0.0382
15,GAGGCCG,0.0723
16,UGGGGCA,3.56
17,AUGCUUU,-0.841
18,UAAACCA,-0.578
19,AUAAUUU,-0.756
20,GUCGUAC,-0.243
21,GCCGUGC,-0.402
22,AACAAUC,-0.506
23,GGGGGGA,3.3

row,Sequence,RNAcompete 7-mer binding Z-score
1,AUUUGCA,-0.613
2,AGCUACC,-0.649
3,GGAUUAC,0.719
4,CUAUGGU,-0.116
5,CUCUUCC,-0.818
6,CUCUGGU,-0.672
7,ACAAACU,-0.73
8,UUCAGAU,-0.633
9,ACAACAC,-0.327
10,GUCGUUC,-0.412
11,ACACCGG,0.215
12,GAUAUUA,-0.0317
13,GGUCGCU,-0.0674
14,ACUUCUU,-0.902
15,AACUCCG,-0.623
16,ACGCCCA,-0.72
17,GCUGCUA,-0.314
18,AGCUUGG,0.631
19,GAAACAC,-0.344
20,GGUGGGC,3.3
21,AGUACCA,-0.344
22,UGUGCCU,-0.295
23,GUUUAUA,-0.311

row,Sequence,RNAcompete 7-mer binding Z-score
1,GCGCCUG,-0.37
2,GGCCGUG,0.586
3,CCAGGCA,-0.305
4,CCCAAGG,-0.022
5,CCGCGUU,-0.808
6,UUUAUGG,0.303
7,UUUGUUG,-0.142
8,CGAAGCG,0.319
9,UCCUCCA,-0.607
10,UGGGCUU,1.32
11,GGGUAGC,2.73
12,GCACUGG,0.735
13,ACGCGUA,-0.197
14,ACAAGAC,-0.272
15,AAGAAUG,0.894
16,AGGAACC,-0.139
17,GACUUUG,-0.597
18,AAAUGUA,0.15
19,GAUCCAA,-0.652
20,AAUAGGG,3.28
21,GCAACAC,-0.532
22,UAGGAUA,2.03
23,CAUGCGG,0.222

row,Sequence,RNAcompete 7-mer binding Z-score
1,GGCCAUG,-0.0609
2,CAUGUGA,0.17
3,UCAUGUU,-0.535
4,AACGAAA,-0.262
5,ACUCCAU,-0.724
6,GCGUCAC,-0.0252
7,GUAACCA,-0.256
8,UGGGUGU,3.53
9,CCUCCAC,-0.685
10,AGACUUA,-0.724
11,AAGUCUC,-0.668
12,AUUGGUU,1
13,UUUUUCC,-0.805
14,AUCAGUU,-0.545
15,CGCUCUA,-0.72
16,UCCGGCU,-0.607
17,UAGUAUG,0.0918
18,CCGUGCG,-0.21
19,AGUCGUA,-0.145
20,UAAGAAU,-0.0999
21,CUUGCAU,-0.828
22,GAGCUAU,-0.0999
23,UGGUAAA,1.13

row,Sequence,RNAcompete 7-mer binding Z-score
1,ACACGUU,-0.516
2,UUGCGUA,-0.308
3,CCGGUCG,-0.331
4,CAGAAGG,1.57
5,UCAUACC,-0.919
6,CGGGAUA,1.56
7,GUCUAAC,-0.558
8,ACCAAGC,-0.639
9,CAUCGGA,-0.331
10,GAACCUU,-0.88
11,AGGCUUA,-0.279
12,CCUCCUA,-0.688
13,GGAACGG,4.07
14,UCGGAGG,1.34
15,UUCAUGU,-0.617
16,AGCGGGC,1.51
17,GACUAAA,-0.347
18,AUCACGU,-0.457
19,GUCAAAU,-0.334
20,AUCGACU,-0.766
21,AAAAUCA,-0.558
22,GAGCAGC,0.183
23,UUAUCUA,-0.623

row,Sequence,RNAcompete 7-mer binding Z-score
1,ACUAUAG,-0.256
2,UGCUUAA,-0.665
3,CGGAACA,0.381
4,UCGCCAC,-0.425
5,ACGGUAC,0.41
6,AUCGGGG,2.27
7,CUGACUU,-0.776
8,AUCCGGU,-0.227
9,CAUGCAU,-0.457
10,GUAUGGG,4.25
11,AGUCAUC,-0.681
12,AACGCGG,0.498
13,CAGUUGU,-0.613
14,CCGGGGU,2.08
15,GGUACUC,0.000789
16,AAAGCUC,-0.591
17,ACGAAGG,2.44
18,GGGUGCC,1.91
19,AGUUACU,-0.623
20,UGAUCUU,-0.782
21,AGCUUAU,-0.646
22,AUACCGC,-0.714
23,UAGUAGA,0.469

row,Sequence,RNAcompete 7-mer binding Z-score
1,GGUUUUU,0.842
2,UGGGACU,1.85
3,AGAGCCC,-0.831
4,UGUCUGC,-0.617
5,CGGUUCU,-0.597
6,GAUUGCU,-0.324
7,UCGUAAG,-0.441
8,AGAGUUA,0.00404
9,GGAGUGA,2.38
10,ACAGCAG,-0.0285
11,AUUGUGG,1.61
12,UCGUCCA,-0.604
13,UCUAGUC,-0.694
14,CGUUACU,-0.558
15,AUUUAGC,-0.704
16,CAUCGGC,-0.428
17,AUGUCGA,-0.357
18,CGCUCAA,-0.526
19,AGGUUGG,3.06
20,CAAUCGC,-0.837
21,GGUUGGA,3.17
22,UCGUCGC,-0.571

# Source: the supplement of paper PMC5499739
